Paper PMC4336329 (PLoS ONE, 2015)
Out of some 310,000 compounds screened, about 14,000 (4.5%) showed an effect of 50% or more. Effects have a minus sign here. The list shows a part of the results.

biological target: human ether-à-go-go-related gene (hERG) potassium channel (human, UniProt Q12809); assay: primary screen, population patch clamp on CHO cells stably expressing hERG
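Note: peak tail current of the secondary pulse compared with the same well before compound.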

Chain of human ether-à-go-go-related gene (hERG) potassium channel (Q12809 whole entry, looked up): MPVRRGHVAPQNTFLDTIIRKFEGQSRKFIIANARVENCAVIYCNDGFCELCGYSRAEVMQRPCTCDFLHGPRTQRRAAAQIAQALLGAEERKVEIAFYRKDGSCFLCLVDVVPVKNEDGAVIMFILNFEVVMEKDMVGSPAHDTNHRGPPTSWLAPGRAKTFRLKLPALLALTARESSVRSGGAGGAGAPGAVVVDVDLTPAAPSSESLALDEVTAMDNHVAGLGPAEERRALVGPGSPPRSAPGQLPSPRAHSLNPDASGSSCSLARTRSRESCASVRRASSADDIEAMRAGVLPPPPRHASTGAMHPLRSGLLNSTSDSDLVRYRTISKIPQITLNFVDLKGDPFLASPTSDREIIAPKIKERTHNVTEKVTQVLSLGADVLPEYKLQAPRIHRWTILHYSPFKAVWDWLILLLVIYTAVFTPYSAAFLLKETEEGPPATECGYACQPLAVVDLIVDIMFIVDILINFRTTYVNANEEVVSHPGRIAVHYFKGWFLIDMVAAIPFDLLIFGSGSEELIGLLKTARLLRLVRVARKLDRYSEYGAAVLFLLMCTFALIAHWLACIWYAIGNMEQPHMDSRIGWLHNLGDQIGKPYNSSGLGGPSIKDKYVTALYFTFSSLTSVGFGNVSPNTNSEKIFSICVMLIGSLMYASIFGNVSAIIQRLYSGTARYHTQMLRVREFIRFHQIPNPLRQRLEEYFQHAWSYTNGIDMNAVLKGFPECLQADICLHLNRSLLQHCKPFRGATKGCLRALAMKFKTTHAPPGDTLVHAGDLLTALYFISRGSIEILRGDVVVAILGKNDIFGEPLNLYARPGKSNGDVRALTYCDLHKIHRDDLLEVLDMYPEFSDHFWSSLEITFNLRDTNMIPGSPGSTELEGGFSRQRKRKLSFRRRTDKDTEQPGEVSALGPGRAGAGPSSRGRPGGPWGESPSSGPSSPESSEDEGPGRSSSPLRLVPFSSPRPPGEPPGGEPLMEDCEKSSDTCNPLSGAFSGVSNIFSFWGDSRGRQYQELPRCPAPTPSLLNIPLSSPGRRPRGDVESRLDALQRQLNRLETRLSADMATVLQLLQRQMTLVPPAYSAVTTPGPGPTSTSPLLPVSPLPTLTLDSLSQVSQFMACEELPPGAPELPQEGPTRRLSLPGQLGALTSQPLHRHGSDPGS

| Compound | hERG current change (%, negative = inhibition) at 10uM |
| --- | --- |
| CN(C)c1ccc(/C=C2\CCCCC2=O)cc1 | -3.05% |
| CC(=O)c1c(C)n(C)c2ccc(OC(=O)c3ccc([N+](=O)[O-])cc3)cc12 | 17.2% |
| CN(CC(=O)O)S(=O)(=O)c1ccc2c(c1)n(C)c(=O)c(=O)n2C | 19.1% |
| C=CCN1C=CC(=C/C=C(/C#N)C(=O)OCC)C=C1 | -0.351% |
| CC(=O)C1=C(C)NC(SCC(=O)c2ccc(-c3ccccc3)cc2)=C(C#N)C1c1cccnc1 (stereo not shown) | 8.4% |
| Cc1nc2ccc(S(=O)(=O)N(C)CC(=O)NCCc3ccccc3)cc2s1 | -3.16% |
| O=C(NC1CCCC1)C(c1ccncc1)N(Cc1ccco1)C(=O)c1ccc(-c2ccccc2)[nH]1 (stereo not shown) | 1.38% |
| O=C(NCCc1c[nH]c2ccccc12)/C(=C/c1cccnc1)NC(=O)c1ccccc1 | -14.3% |
| COC(=O)c1cn(NC(=O)Cn2nc([N+](=O)[O-])c(Br)c2C)c(=O)c2ccccc12 | 25.2% |
| C=CCOc1ccc(CNC(C)(C)C)cc1OC.Cl | -17% |
| CC1(C)Oc2ccc(C(=O)N3CCOCC3)cc2N(CC(=O)Nc2ccccc2)C1=O | -1.86% |
| NS(=O)(=O)c1cccnc1Nc1cccc(Cl)c1Cl | -3.35% |
| N#CC1(NC(=O)COc2ccccc2[N+](=O)[O-])CCCCC1 | 3.83% |
| S=C(NCCC(c1ccccc1)c1ccccc1)Nc1cccc(Cl)c1 | 16.3% |
| COc1ccc(Oc2nc(OC)cc(OC)n2)cc1 | 15.4% |
| Cc1ccccc1OC(=O)CCC(=O)OCCCC(F)(F)C(F)(F)F | 28.2% |
| CC(C)c1nnc(NC(=O)CSc2ccccc2)s1 | 20.4% |
| CCC(=O)N(Cc1cc2cc(OC)ccc2[nH]c1=O)c1cc(C)ccc1C | 5.17% |
| CC(C)c1cccc(C(C)C)c1NC(=O)COC(=O)c1ccc2c(c1)S(=O)(=O)c1ccccc1C2=O | 14.4% |
| COC(=O)c1ccc(CSc2nc3c(cnn3-c3ccccc3)c(=O)[nH]2)o1 | 4.11% |
| O=C1CCC(=O)N1c1ccc(NCCc2ccccc2F)c([N+](=O)[O-])c1 | 8.08% |
| O=C(NCCN1CCCC1)c1ccc(Cn2c(=S)[nH]c3cc4c(cc3c2=O)OCO4)cc1 | -0.433% |

| Compound | hERG current change (%, negative = inhibition) at 10uM |
| --- | --- |
| Cc1ccc2nc(SCC(=O)NCc3ccc(F)cc3)[nH]c2c1 | -10.9% |
| CCOc1ccc(C(=O)Nc2cccc3cccnc23)cc1 | 16.7% |
| Cc1ccc(S(=O)(=O)N2C(=O)CCC2C(=O)Nn2cnnc2)cc1 (stereo not shown) | 5.62% |
| O=C(C1CCN(S(=O)(=O)c2cccs2)CC1)N1CCCCC1 | 6.43% |
| Cc1nc2cc(S(=O)(=O)N(C)C)ccc2n1-c1ccccc1 | -0.127% |
| CCN(CC)CCn1c2c(c(SCC(=O)NCc3ccccc3)nc1=O)CCC2 | -38.7% |
| COc1ccc(-n2c(=S)[nH]c3cc(C(=O)Nc4ccc(C)c(F)c4)ccc3c2=O)c(OC)c1 | 19.8% |
| CCCC12CN3CC(CCC)(CN(C1)C3c1ccccn1)C2=O (stereo not shown) | -22.3% |
| Cc1ccc(CN2CCC(Oc3cccc(C(=O)N(C)CCN(C)C)c3)CC2)cc1C | 5.34% |
| CC1(N2CCCCC2)C(=O)c2ccccc2C1=O | 15.4% |
| O=C(CCCC(=O)NCc1ccccc1)NCc1ccccc1 | -3.55% |
| Cc1cccc(C)c1NC(=O)CNC(=O)C1CCCC1 | 2.19% |
| COc1ccc(C2/C(=C(/O)c3ccccc3)C(=O)C(=O)N2c2ccccn2)c(OC)c1 (stereo not shown) | 10.8% |
| Cc1ccccc1N(C(=O)CNC(=O)c1cccs1)C(C(=O)NC1CCCC1)c1ccncc1 (stereo not shown) | -1.58% |
| CC(C)N1CCN(C(=O)c2cccc(Cl)c2)CC1.O=C(O)C(=O)O | 10.2% |
| Cc1onc(-c2c(Cl)cccc2Cl)c1C(=O)NCc1cccs1 | -9.65% |
| O=C(COC(=O)C1=COCCO1)Nc1cccc(Oc2ccccc2)c1 | -44% |
| COCCNC(=O)CN1CCC(NC(=O)C(C)(C)C)CC1 | -6.88% |
| CSc1ccccc1NC(=O)CN(C)CC(=O)Nc1ccccc1F.O=C(O)C(=O)O | 1.1% |
| CCOC(=O)c1[nH]c2ccccc2c1NC(=O)c1ccc(Br)o1 | -8.9% |
| O=[N+]([O-])c1ccc(S(=O)(=O)N2CCN=C2SCc2cccnc2)cc1 | -68.1% |
| O=C(CCc1nc2ccccc2c(=O)[nH]1)NC1CCN(Cc2ccccc2)CC1 | -0.782% |

| Compound | hERG current change (%, negative = inhibition) at 10uM |
| --- | --- |
| COc1ccc(OC)c(N(CC(=O)Nc2ccc(NC(C)=O)cc2)S(C)(=O)=O)c1 | 8.05% |
| CCc1cc(OCCN2C(=O)NC(C)(C)C2=O)ccc1Cl | -1.23% |
| COC(=O)c1ccc(COC(=O)CNC(=O)CNC(=O)c2ccc(OC)cc2)cc1 | -6.8% |
| CCN1C(C)=C(C)S/C1=C1\SC(=S)N(NC(C)=O)C1=O | 18.7% |
| COc1ccccc1C(=O)Nc1ccc(C(=O)c2ccccc2)cc1 | 22.2% |
| Cc1ccc(N/C=C/C(=O)c2sc(-c3ccccc3)nc2C)cc1 | 7.73% |
| COc1ccc2c(c1)NC1(O)c3ccccc3C(=O)C21O (stereo not shown) | -22.5% |
| O=c1c2ccccc2c(=O)n2n1Cc1ccccc1C2 | 9.51% |
| CCOc1ccc(S(=O)(=O)N2CCC(C(=O)Nc3cccc(NC(C)=O)c3)CC2)cc1 | 17.9% |
| CCN(c1ccc(OC)cc1)S(=O)(=O)c1ccc(-c2cc(C)no2)s1 | -15.6% |
| O=C(Nc1ccc(Cl)cn1)c1ccc(Oc2ccccc2)cc1 | 2.48% |
| O=C(CCNC(=O)C1CCN(S(=O)(=O)c2ccccc2)CC1)NC1CC1 | 15.6% |
| Cc1nc(Nc2ccccc2)sc1-c1ccccc1 | 1.73% |
| CCCCn1c(N)c(N(CCOC)C(=O)CSc2nnc(C)n2-c2ccc(OC)cc2)c(=O)[nH]c1=O | 22.1% |
| O=C(C1CCN(S(=O)(=O)c2cnc[nH]2)CC1)N1CCN(c2ncccn2)CC1 | 3.57% |
| COc1ccc(S(=O)(=O)N2CCN(C(=O)CNC(=O)c3ccc4c(c3)OCO4)CC2)cc1 | 15.4% |
| COc1ccc(CN2CC(=O)N(c3cc(Cl)ccc3C)C2=S)cc1OC | 12.8% |
| Cc1ccc(CNC(=O)Cn2ncn3cccc3c2=O)cc1 | 12.8% |
| Cc1ccc2nc(CSc3nnc4ccccn34)cc(=O)n2c1 | 13.2% |
| O=C(Nc1ccccc1Cl)c1sccc1-c1ccccc1 | -2.39% |
| CN(C)S(=O)(=O)c1ccc(Oc2ccccc2)cc1 | -38.1% |
| CCN1CCSc2ccc(C(=O)NCc3ccccc3Br)cc21 | -5.94% |

| Compound | hERG current change (%, negative = inhibition) at 10uM |
| --- | --- |
| O=C(NC1CCCC1)C(c1cccs1)N(Cc1ccco1)C(=O)c1csnn1 (stereo not shown) | 4.25% |
| Cc1ccc(C(OCC(O)CN2CCCCC2CO)c2ccccc2)cc1 (stereo not shown) | -62.8% |
| CC(C)c1onc(C(=O)Nc2cccc(O)c2)c1[N+](=O)[O-] | 12.4% |
| CC1CC(Nc2ccccc2)=CC(=O)O1 (stereo not shown) | 24.7% |
| CCC(CO)Nc1ncnc2onc(-c3ccc(F)cc3)c12 (stereo not shown) | 24.4% |
| NC(=O)c1ccsc1NC(=O)c1ccc(S(=O)(=O)N2CCCc3ccccc32)cc1 | 2.02% |
| CCN(CC)Cc1ccc(NC(=O)c2sc3cc(Cl)ccc3c2Cl)cc1 | -6.35% |
| CC1(CCc2ccc(O)cc2)NC(=O)NC1=O (stereo not shown) | 0.765% |
| NC(=O)N/N=C/c1ccc2cccc(OCc3ccccc3)c2n1 | -12.5% |
| Cc1cc(C)nc(SCC(=O)N2CCc3ccccc32)n1 | 11.7% |
| Cc1ccc(NC(=O)c2cccc(OCc3c(C)noc3C)c2)c(C)c1 | -12.8% |
| COC(=O)c1ccc(CN(C)S(=O)(=O)c2ccc(C)cc2)o1 | -12.3% |
| O=C(c1ccc(F)cc1)N1CCN(c2ccc([N+](=O)[O-])cc2-n2cccc2)CC1 | -65% |
| CC1CCc2c(sc(NC(=O)CCC(=O)O)c2C(=O)NC2CC2)C1 (stereo not shown) | 18.1% |
| OCCNc1nc(N2CCCC2)nc(N2CCCC2)n1 | -2.85% |
| COc1ccc(C)cc1Nc1nc(-c2c(C)[nH]c3ccccc23)cs1 | 2.7% |
| CC(C)c1ccc(OCc2ccc(C(=O)N3CCCC3)o2)cc1 | -20.3% |
| CN1C2C=C3C(C#N)=C(N)C(C#N)(C#N)[C@@H](c4cccs4)C3C1CC2 (stereo partly shown) | 5.18% |
| Cc1cccc(C(=O)OCC(=O)Nc2ccccc2C(=O)NC2CC2)c1 | 4.08% |
| CCCCOC(=O)/C(=C\c1ccc([N+](=O)[O-])o1)NC(=O)c1ccccc1 | -19.8% |
| O=C(NNC1=Nc2cccc3cccc1c23)c1ccc(Br)cc1 | 4.78% |
| COc1cc([C@@H]2c3cc4c(cc3[C@@H](O)[C@@H](CO)[C@@H]2CO)OCO4)cc(OC)c1O[Si](C)(C)C(C)(C)C | 4.66% |
